# Measured values published in PubChem BioAssay AID588453 (National Center for Advancing Translational Sciences (NCATS), 2011).
# Out of some 390,000 compounds screened, about 4,000 (1%) were called active. Inconclusive means that the source gave no clear call. Such entries were picked first, then a sample of the others. The call rests on the fitted dose curve; in most records, active means well fitted inhibition curve with a large enough effect; inconclusive means small, poorly fitted or top-dose-only effect; inactive means no such curve, though single readings can be large or run the other way. A potency beside an inconclusive call is a rough fit, not a confirmed value.
# Biological target: Thioredoxin reductase 1, cytoplasmic (Rattus norvegicus) (UniProt O89049)
# UniProt O89049, sequence (O89049 whole entry, looked up): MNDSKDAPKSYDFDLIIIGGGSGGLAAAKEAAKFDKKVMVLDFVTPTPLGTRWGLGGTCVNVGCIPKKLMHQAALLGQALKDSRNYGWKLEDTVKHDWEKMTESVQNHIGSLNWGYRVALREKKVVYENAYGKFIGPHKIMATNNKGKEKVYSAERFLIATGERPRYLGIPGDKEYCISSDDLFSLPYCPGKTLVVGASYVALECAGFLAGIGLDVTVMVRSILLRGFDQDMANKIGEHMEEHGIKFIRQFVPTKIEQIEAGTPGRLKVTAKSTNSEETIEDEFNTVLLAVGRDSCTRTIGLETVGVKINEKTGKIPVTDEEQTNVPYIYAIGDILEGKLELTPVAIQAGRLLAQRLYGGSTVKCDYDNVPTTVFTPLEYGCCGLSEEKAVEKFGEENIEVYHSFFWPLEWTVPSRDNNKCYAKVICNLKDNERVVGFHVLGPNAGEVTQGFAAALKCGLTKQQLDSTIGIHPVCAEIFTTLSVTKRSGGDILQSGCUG
# Assay: qHTS Assay for Inhibitors of Mammalian Selenoprotein Thioredoxin Reductase 1 (TrxR1): qHTS; further: nearly all actives have a fitted effect of over 65% in size
# Conditions: recombinant rTrxR1, NADPH fluorescence consumption, selenite substrate; series mostly up to 114 µM
# Summary of the method: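 Rat TrxR1 (90 nM in the dispensed reagent) was pre-reduced with 400 uM NADPH for 5 min at room temperature, then incubated with compound for 15 min. After 400 uM selenite was added, NADPH fluorescence (Ex 340/Em 450 nm) was followed for 8 min.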
# Potency means the concentration at half of the fitted maximal effect; tags describe the fitted curve by direction and shape.
row,SMILES,Potency
1,Cc1nn(-c2ccccc2)nc1C(=O)c1c(C)[nH]n(-c2ccccc2)c1=O,inactive
2,O=C(Nc1cccc([N+](=O)[O-])c1)Nc1cccs1,inactive
3,Cc1[nH]c2ccccc2c1C(=O)CN1CCC2(CC1)OCCO2,"inconclusive: 28.2 µM [inhibitor, single point]"
4,CC(=O)/C(=N/Nc1ccccc1C)N1CCOCC1,"inconclusive: 50.1 µM [inhibitor, partial curve]"
5,Cc1ccc(NCc2cc3cc4c(cc3n(CC(=O)Nc3ccc(F)cc3F)c2=O)OCCO4)cc1,"inconclusive: 2.51 µM [inhibitor, partial curve, poor fit]"
6,O=C(CN1CCN(Cc2ccccc2)CC1)N/N=C/C=C/c1ccco1,"inconclusive: 22.4 µM [inhibitor, full curve]"
7,CCOC(=O)C1Nc2ccc(OC(F)(F)F)cc2C2C=CCC12 (stereo not drawn),"inconclusive: 14.1 µM [inhibitor, partial curve, poor fit]"
8,O=[N+]([O-])c1cc(S(=O)(=O)Nc2ccccc2)ccc1NCc1ccccc1,"inconclusive: 89.1 µM [inhibitor, single point]"
9,COc1cccc(CN2CCNC(=O)C2CC(=O)NC2CCCCC2)c1OC (stereo not drawn),"inconclusive: 1.41 µM [inhibitor, full curve, poor fit]"
10,Oc1c(C(c2ccccc2Cl)N2CCC(O)CC2)sc2nc(-c3ccco3)nn12 (stereo not drawn),inactive
11,CNC(=O)c1c(C)[nH]c(=S)c(C#N)c1-c1ccco1,active: 12.6 µM
12,[N-]=[N+]=CC(=O)c1ccnc(C(=O)C=[N+]=[N-])c1,"inconclusive: 28.2 µM [inhibitor, partial curve, poor fit]"
13,COc1ccc(C(C[N+](=O)[O-])c2c(-c3ccccc3)cc3ccccn23)c(OC)c1 (stereo not drawn),"inconclusive: 56.2 µM [inhibitor, partial curve, poor fit]"
14,Cc1cc(C)cc(NS(=O)(=O)c2c(C)nc3scc(C)n3c2=O)c1,inactive
15,COCCn1c(=NC(=O)CCS(=O)(=O)c2ccccc2)sc2cc(F)ccc21,"inconclusive: 56.2 µM [inhibitor, single point]"
16,COc1ccc(S(=O)(=O)NCCSCc2ccco2)cc1Cl,"inconclusive: 22.4 µM [inhibitor, single point]"
17,Cc1ccc2cc(CN(Cc3ccco3)C(=O)NCc3ccccc3)c(=O)[nH]c2c1C,inactive
18,CCCCN(C(=O)c1ccc(S(=O)(=O)N2CCC(C)CC2)cc1)C1CCS(=O)(=O)C1 (stereo not drawn),"inconclusive: 3.16 µM [inhibitor, single point]"
19,O=C(O)c1cccc2c1C(=O)c1ccc(-c3ccc(OC(F)(F)F)cc3)cc1S2(=O)=O,"inconclusive: 79.4 µM [inhibitor, single point]"
20,C/C=N/NC(=O)CCNC(=O)c1ccccc1,"inconclusive: 17.8 µM [inhibitor, partial curve, poor fit]"
21,O=C(CN1CCN(c2ccc(Cl)cc2)CC1)c1ccc2c(c1)OCO2,"inconclusive: 28.2 µM [inhibitor, single point]"
22,COc1cnc(-c2ccccn2)nc1Oc1c(C)cccc1C,"inconclusive: 89.1 µM [inhibitor, partial curve, poor fit]"

row,SMILES,Potency
1,Cn1nnnc1Sc1ncnc2scc(-c3cccc(S(C)(=O)=O)c3)c12,"inconclusive: 89.1 µM [inhibitor, single point]"
2,Cc1nc(C)c(/C(O)=C\c2nc3ccc([N+](=O)[O-])cc3oc2=O)o1,"inconclusive: 17.8 µM [inhibitor, partial curve]"
3,CCCC(=O)OCCNc1cc(SCc2ccco2)c2nonc2c1[N+](=O)[O-],active: 3.98 µM
4,Cc1ccc(S(=O)(=O)CC(=O)Nc2nc3ccc(S(N)(=O)=O)cc3s2)cc1,"inconclusive: 70.8 µM [inhibitor, partial curve, poor fit]"
5,C=CCN1C(=O)C(CC(=O)Nc2ccc(OC)cc2)N(Cc2ccco2)C1=S (stereo not drawn),"inconclusive: 39.8 µM [inhibitor, partial curve]"
6,CC(C)COc1ccc(C(=O)OC2CC(C)(C)OCC2CN(C)C)cc1 (stereo not drawn),inactive
7,CCOC(=O)C(C(=O)OCC)C(c1ccccc1)N1CCN(c2ccccc2)CC1 (stereo not drawn),"inconclusive: 56.2 µM [inhibitor, partial curve, poor fit]"
8,C=CCOc1ccc(/C=C\c2nc(O)c([N+](=O)[O-])c(=O)[nH]2)cc1OC,"inconclusive: 35.5 µM [inhibitor, partial curve, poor fit]"
9,Fc1ccccc1NC(=S)Nn1cnnc1,"inconclusive: 12.6 µM [inhibitor, full curve]"
10,COC(=O)c1c(C(=O)OC)c(-c2ccccc2)n2c1CS(=O)(=O)C2,"inconclusive: 25.1 µM [inhibitor, single point]"
11,CC(C)Sc1oc(-c2ccco2)nc1S(=O)(=O)c1ccc(F)cc1,"inconclusive: 20 µM [inhibitor, full curve]"
12,CCCOc1cccc(NC(=O)OC2CCN(C)CC2)c1,inactive
13,O=C(CCN1CCC2CCC(C2)C1)c1ccccc1 (stereo not drawn),active: 0.708 µM
14,CC(=O)OCC1=C(C(=O)O)N2C(=O)C(NC(=O)c3ccc(COc4ccc(Cl)cc4)o3)C2SC1 (stereo not drawn),"inconclusive: 11.2 µM [inhibitor, partial curve]"
15,CCOC(=O)c1c(NC(=O)COC(=O)c2nccnc2N)sc(C(=O)N(C)C)c1C,"inconclusive: 70.8 µM [inhibitor, single point]"
16,Cc1nc(SCC(=O)c2ccccc2)n[nH]1,"inconclusive: 79.4 µM [inhibitor, single point]"
17,CCCn1cc(S(=O)(=O)c2ccc(OC)cc2)c(=O)c2cc(F)c(N3CCCC(C)C3)cc21 (stereo not drawn),inactive
18,COc1ccc(-c2ccc(-c3noc(-c4ccccc4C)n3)c(OC)n2)cc1,"inconclusive: 70.8 µM [inhibitor, single point]"
19,c1ccc(-c2n[nH]c(-c3ccccn3)n2)nc1,inactive
20,O=C(O)CN1C(=O)/C(=C/c2ccc(SCc3ccccc3)o2)SC1=S,inactive
21,O=C(COc1ccc(/C=N/NS(=O)(=O)c2ccccc2)cc1)N1CCOCC1,"inconclusive: 79.4 µM [inhibitor, partial curve, poor fit]"
